{"source": "paper PMC4336329", "about": "(PLoS ONE, 2015)", "note": "Screen size: about 310,000 compounds; about 2,200 (0.71%) showed an effect of 50% or more. Effects have a minus sign here. The list shows a part of the results.", "data": [{"molecular_target": "human ether-à-go-go-related gene (hERG) potassium channel (human, UniProt Q12809)", "sequence (Q12809 whole entry, looked up)": "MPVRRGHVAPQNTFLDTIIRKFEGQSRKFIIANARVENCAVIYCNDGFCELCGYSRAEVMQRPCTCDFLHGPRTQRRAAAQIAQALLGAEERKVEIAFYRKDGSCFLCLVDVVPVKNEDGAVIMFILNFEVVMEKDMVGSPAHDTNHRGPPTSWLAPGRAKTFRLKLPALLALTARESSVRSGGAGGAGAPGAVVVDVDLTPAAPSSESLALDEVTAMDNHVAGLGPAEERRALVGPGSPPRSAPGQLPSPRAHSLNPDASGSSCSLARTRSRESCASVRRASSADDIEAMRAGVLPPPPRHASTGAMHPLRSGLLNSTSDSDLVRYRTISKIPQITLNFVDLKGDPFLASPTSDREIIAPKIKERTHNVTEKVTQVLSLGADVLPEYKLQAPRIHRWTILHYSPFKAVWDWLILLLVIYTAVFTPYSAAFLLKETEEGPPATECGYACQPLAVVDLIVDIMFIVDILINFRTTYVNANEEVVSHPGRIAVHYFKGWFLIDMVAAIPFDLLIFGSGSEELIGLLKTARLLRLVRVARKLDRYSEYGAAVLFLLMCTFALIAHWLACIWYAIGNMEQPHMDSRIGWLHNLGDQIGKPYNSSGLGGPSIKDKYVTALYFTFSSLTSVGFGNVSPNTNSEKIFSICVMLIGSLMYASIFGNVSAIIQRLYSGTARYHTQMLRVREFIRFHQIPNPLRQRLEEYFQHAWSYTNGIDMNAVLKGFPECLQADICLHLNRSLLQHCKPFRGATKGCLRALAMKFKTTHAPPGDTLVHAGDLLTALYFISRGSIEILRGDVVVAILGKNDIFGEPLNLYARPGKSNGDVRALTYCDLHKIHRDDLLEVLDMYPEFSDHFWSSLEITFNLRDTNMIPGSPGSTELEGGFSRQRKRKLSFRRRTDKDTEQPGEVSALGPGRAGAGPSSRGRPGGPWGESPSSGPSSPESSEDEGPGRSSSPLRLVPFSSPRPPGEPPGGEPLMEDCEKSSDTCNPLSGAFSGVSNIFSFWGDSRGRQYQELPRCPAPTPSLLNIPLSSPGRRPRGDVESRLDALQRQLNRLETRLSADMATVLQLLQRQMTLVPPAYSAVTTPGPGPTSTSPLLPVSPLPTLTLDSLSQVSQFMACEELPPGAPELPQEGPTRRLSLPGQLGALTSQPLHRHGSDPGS", "experiment": "primary screen, population patch clamp on CHO cells stably expressing hERG", "units": {"hERG current change (%, negative = inhibition) at 1uM": "%"}, "values": [{"smiles": "Cc1ccc(C(=O)NCCN2C3=NC[C@@H](Cc4ccccc4)N3C[C@H]2Cc2ccc(O)cc2)cc1Br", "hERG current change (%, negative = inhibition) at 1uM": -4.33}, {"smiles": "COc1ccc(C2SCC(=O)N2c2ccccc2)cc1", "note": "(stereo not drawn)", "hERG current change (%, negative = inhibition) at 1uM": 12.2}, {"smiles": "O=C(NCc1cccc(Cl)c1)C1CCN(c2nnc(N3CCCC3=O)s2)CC1", "hERG current change (%, negative = inhibition) at 1uM": 3.63}, {"smiles": "Cc1cc(C)n(C(=O)/C=C/c2cccs2)n1", "hERG current change (%, negative = inhibition) at 1uM": 13.6}, {"smiles": "CC(=O)Nc1ccc(CN2CCc3c([nH]c4ccccc34)C2C(C)(C)C)cc1", "note": "(stereo not drawn)", "hERG current change (%, negative = inhibition) at 1uM": 11.6}, {"smiles": "Cc1ccc(S(=O)(=O)N2CCC(=O)N(C(COCc3cccc(C)c3)Cc3ccccc3)CC2)cc1", "note": "(stereo not drawn)", "hERG current change (%, negative = inhibition) at 1uM": 11}, {"smiles": "O=C(CNCc1ccccc1Cl)Nc1ccc2c(c1)OCCO2.O=C(O)C(=O)O", "hERG current change (%, negative = inhibition) at 1uM": -6.19}, {"smiles": "CCN1CCN(c2cc(C)c3cc(NC(=S)NCc4cccs4)ccc3n2)CC1", "hERG current change (%, negative = inhibition) at 1uM": -3.12}, {"smiles": "COc1ccc(NC(=O)CN(C)C(=O)c2cccc(S(=O)(=O)N3CCCc4ccccc43)c2)cc1", "hERG current change (%, negative = inhibition) at 1uM": -24.1}, {"smiles": "FC(F)(F)c1nnc2ccc(Sc3ccccn3)nn12", "hERG current change (%, negative = inhibition) at 1uM": 14.2}, {"smiles": "CCn1c(=O)c2c(cnn2C)c2ccccc21", "hERG current change (%, negative = inhibition) at 1uM": 9.08}, {"smiles": "Cc1nnc(SCCn2c(N3CCCC(C)C3)nc3c2c(=O)[nH]c(=O)n3C)s1", "note": "(stereo not drawn)", "hERG current change (%, negative = inhibition) at 1uM": 12.2}, {"smiles": "Cc1c(C)n(Cc2ccccc2)c2ncnc(NN)c12", "hERG current change (%, negative = inhibition) at 1uM": 10.8}, {"smiles": "CC(C)(C)n1nnnc1C(c1cccs1)N1CCN(Cc2ccc3c(c2)OCO3)CC1", "note": "(stereo not drawn)", "hERG current change (%, negative = inhibition) at 1uM": 0.865}, {"smiles": "CCOc1ccccc1NS(=O)(=O)c1cccs1", "hERG current change (%, negative = inhibition) at 1uM": 7.8}, {"smiles": "CN(C)CCn1c(=S)[nH]c2ccc(Cl)cc2c1=O", "hERG current change (%, negative = inhibition) at 1uM": -1.99}, {"smiles": "COc1cccc(NC(=S)NN=C2CCC(C(C)(C)C)CC2)c1", "note": "(stereo not drawn)", "hERG current change (%, negative = inhibition) at 1uM": 6.45}, {"smiles": "COC(=O)Cc1c(C)nc2nc(-c3ccc(OC)cc3)[nH]n2c1=O", "hERG current change (%, negative = inhibition) at 1uM": 4.73}, {"smiles": "COC(=O)c1ccc2c(=O)n(CCCCCC(=O)NCc3ccccn3)c(=O)[nH]c2c1", "hERG current change (%, negative = inhibition) at 1uM": 6.49}, {"smiles": "COc1ccc(CCNC(=O)c2sc(=S)n(C)c2N)cc1", "hERG current change (%, negative = inhibition) at 1uM": 16}, {"smiles": "COc1ccc(NC(=O)[C@H](Cc2c[nH]c3ccccc23)NC(=O)[C@@H]2Cc3ccccc3CN2)cc1", "hERG current change (%, negative = inhibition) at 1uM": 2.88}, {"smiles": "O=C(CCC(=O)Nc1ccccc1Cl)NNC(=S)Nc1ccccc1C(F)(F)F", "hERG current change (%, negative = inhibition) at 1uM": 15.8}, {"smiles": "COc1ccc(CN2C(=O)CCC2(C)C(=O)NCc2cccnc2)c(OC)c1", "note": "(stereo not drawn)", "hERG current change (%, negative = inhibition) at 1uM": -1.98}, {"smiles": "O=S1(=O)CC(N2CCOCC2)c2ccccc21", "note": "(stereo not drawn)", "hERG current change (%, negative = inhibition) at 1uM": 12.7}]}]}
